According to the supplement of paper PMC4967469:
pIC50: −log10 of the molar value. A lower IC50 marks a more sensitive line; where the fit passes the top or lowest dose, that dose stands as a limit. AUC, from the same fit, is the share of area under the viability curve across the 256-fold dose range; it is 1 without any effect and falls as sensitivity rises. For some assays here: Any top dose called inferred is not printed in the source and was worked back from the curve model.

Assays:
Experiment in all cases: Viability of human cancer cell lines after 72 h of drug (GDSC screen)
JW-7-52-1 = compound: CCC(=O)N1CCN(c2ccc(-n3c(=O)ccc4cnc5ccc(-c6cnc7ccccc7c6)cc5c43)cc2C(F)(F)F)CC1 [JW-7-52-1]; settings: top dose 1.2 µM; top dose inferred
Protocol: (§1)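 Human cancer cell lines in 384-well plates, medium with 10% serum, drug for 72 h over a 256-fold dose range (nine 2-fold or five 4-fold steps up to the top dose). Adherent lines were fixed and stained with the nucleic acid dye Syto60, suspension lines read with resazurin; signal relative to control wells, capped at 0 and 100%. One two-parameter sigmoid per drug and line, fitted in a mixed model over all curves with the slope shared within a line.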

Tubastatin A = compound: CN1CCc2c(c3ccccc3n2Cc2ccc(C(=O)NO)cc2)C1 [Tubastatin A]; settings: top dose 20 µM
Protocol: as §1

Z-LLNle-CHO = compound: CCCC[C@@H](C=O)NC(=O)[C@H](CC(C)C)NC(=O)[C@H](CC(C)C)NC(=O)OCc1ccccc1 [Z-LLNle-CHO]; settings: top dose 2.56 µM; top dose inferred
Protocol: as §1

IPA-3 = compound: Oc1ccc2ccccc2c1SSc1c(O)ccc2ccccc12 [IPA-3]; settings: top dose 32 µM; top dose inferred
Protocol: as §1

XL-880 = compound: COc1cc2c(Oc3ccc(NC(=O)C4(C(=O)Nc5ccc(F)cc5)CC4)cc3F)ccnc2cc1OCCCN1CCOCC1 [XL-880]; settings: top dose 5.12 µM; top dose inferred
Protocol: as §1

Rapamycin = compound: CO[C@H]1C[C@@H]2CC[C@@H](C)[C@@](O)(O2)C(=O)C(=O)N2CCCC[C@H]2C(=O)O[C@H]([C@H](C)C[C@@H]2CC[C@@H](O)[C@H](OC)C2)CC(=O)[C@H](C)/C=C(\C)[C@@H](O)[C@@H](OC)C(=O)[C@H](C)C[C@H](C)/C=C/C=C/C=C/1C [Rapamycin]; settings: top dose 0.1 µM; top dose inferred
Protocol: as §1

CI-1040 = compound: O=C(NOCC1CC1)c1ccc(F)c(F)c1Nc1ccc(I)cc1Cl [CI-1040]; settings: top dose 10 µM; top dose inferred
Protocol: as §1

Temozolomide = compound: Cn1nnc2c(C(N)=O)ncn2c1=O [Temozolomide]; settings: top dose 30 µM
Protocol: as §1

Cell Line | AUC (JW-7-52-1) | pIC50 (JW-7-52-1) | AUC (Tubastatin A) | pIC50 (Tubastatin A) | AUC (Z-LLNle-CHO) | pIC50 (Z-LLNle-CHO) | AUC (IPA-3) | pIC50 (IPA-3) | AUC (XL-880) | pIC50 (XL-880) | AUC (Rapamycin) | pIC50 (Rapamycin) | AUC (CI-1040) | pIC50 (CI-1040) | AUC (Temozolomide) | pIC50 (Temozolomide)
RF-48 (stomach, adherent) | 0.55 | 6.98 | 0.856 | 4.71 | 0.803 | 5.84 | 0.703 | 5.09 | 0.604 | 6.19 | 0.737 | 7.49 | 0.933 | < 5.00 | 0.976 | < 4.52
TE-6 (oesophagus, adherent) | 0.838 | 5.99 | 0.986 | < 4.70 | 0.96 | < 5.59 | 0.845 | 4.53 | 0.778 | 5.61 | 0.396 | 8.51 | 0.909 | < 5.00 | 0.978 | < 4.52
DSH1 (bladder, adherent) | 0.511 | 7.10 | 0.909 | < 4.70 | 0.656 | 6.37 | 0.983 | < 4.49 | 0.879 | 5.31 | 0.904 | < 7.00 | 0.946 | < 5.00 | 0.988 | < 4.52
LU-134-A (small cell lung carcinoma, suspension) | 0.773 | 6.30 | 0.939 | < 4.70 | 0.89 | < 5.59 | 0.987 | < 4.49 | 0.559 | 6.33 | 0.969 | < 7.00 | 0.974 | < 5.00 | 0.973 | < 4.52
SW962 (urogenital system, adherent) | 0.436 | 7.32 | 0.963 | < 4.70 | 0.778 | 5.88 | 0.862 | < 4.49 | 0.581 | 6.25 | 0.822 | 7.11 | 0.803 | 5.19 | 0.977 | < 4.52
MEG-01 (chronic myeloid leukaemia, suspension) | 0.666 | 6.68 | 0.926 | < 4.70 | 0.78 | 6.00 | 0.936 | < 4.49 | 0.239 | 7.23 | 0.858 | 7.13 | 0.68 | 5.72 | 0.987 | < 4.52
MHH-PREB-1 (B-cell leukaemia, suspension) | 0.296 | 7.67 | 0.83 | 4.97 | 0.877 | 5.67 | 0.582 | 5.49 | 0.524 | 6.43 | 0.682 | 7.72 | 0.988 | < 5.00 | 0.972 | < 4.52
SF539 (glioma, adherent) | 0.854 | 6.10 | 0.917 | < 4.70 | 0.743 | 6.14 | 0.772 | 4.95 | 0.593 | 6.25 | 0.118 | 9.35 | 0.913 | < 5.00 | 0.966 | < 4.52
DU-4475 (breast, suspension) | 0.548 | 7.00 | 0.917 | < 4.70 | 0.779 | 6.07 | 0.874 | 4.67 | 0.612 | 6.21 | 0.838 | 7.30 | 0.244 | 6.87 | 0.984 | < 4.52
EJM (lymphoid neoplasm, semi-adherent) | 0.818 | 6.27 | 0.912 | < 4.70 | 0.791 | 6.02 | 0.869 | 4.66 | 0.725 | 5.91 | 0.951 | < 7.00 | 0.909 | < 5.00 | 0.988 | < 4.52
KARPAS-620 (haematopoietic neoplasm, suspension) | 0.227 | 7.85 | 0.796 | 5.10 | 0.761 | 6.10 | 0.709 | 5.15 | 0.622 | 6.18 | 0.154 | 9.17 | 0.828 | 5.30 | 0.985 | < 4.52
KE-37 (lymphoblastic leukaemia, suspension) | 0.253 | 7.74 | 0.847 | 5.01 | 0.686 | 6.34 | 0.602 | 5.45 | 0.619 | 6.20 | 0.575 | 8.02 | 0.904 | 5.11 | 0.994 | < 4.52
GDM-1 (acute myeloid leukaemia, suspension) | 0.387 | 7.43 | 0.786 | 5.09 | 0.769 | 6.03 | 0.977 | < 4.49 | 0.079 | > 7.70 | 0.794 | 7.36 | 0.987 | < 5.00 | 0.982 | < 4.52
HC-1 (hairy cell leukaemia, suspension) | 0.26 | 7.80 | 0.878 | 4.72 | 0.769 | 6.03 | 0.716 | 5.10 | 0.732 | 5.85 | 0.811 | 7.29 | 0.933 | < 5.00 | 0.835 | 4.73
MRK-nu-1 (breast, suspension) | 0.16 | 8.11 | 0.914 | < 4.70 | 0.806 | 5.93 | 0.933 | < 4.49 | 0.866 | 5.40 | 0.083 | > 9.41 | 0.972 | < 5.00 | 0.983 | < 4.52
KMOE-2 (acute myeloid leukaemia, suspension) | 0.715 | 6.55 | 0.797 | 5.08 | 0.827 | 5.87 | 0.933 | < 4.49 | 0.699 | 5.97 | 0.978 | < 7.00 | 0.212 | 7.00 | 0.981 | < 4.52
EW-13 (Ewing sarcoma, suspension) | 0.919 | < 5.92 | 0.891 | < 4.70 | 0.967 | < 5.59 | 0.654 | 5.25 | 0.594 | 6.22 | 0.964 | < 7.00 | 0.975 | < 5.00 | 0.975 | < 4.52
YT (lymphoid neoplasm, suspension) | 0.992 | < 5.92 | 0.851 | 4.92 | 0.96 | < 5.59 | 0.467 | 5.78 | 0.606 | 6.22 | 0.99 | < 7.00 | 0.682 |  | 0.984 | < 4.52
EW-18 (Ewing sarcoma, suspension) | 0.981 | < 5.92 | 0.808 | 4.95 | 0.985 | < 5.59 | 0.906 | < 4.49 | 0.538 | 6.39 | 0.925 | < 7.00 | 0.976 | < 5.00 | 0.978 | < 4.52
HDLM-2 (Hodgkin lymphoma, suspension) | 0.914 | < 5.92 | 0.989 | < 4.70 | 0.948 | < 5.59 | 0.892 | < 4.49 | 0.883 | < 5.29 | 0.891 | < 7.00 | 0.914 | < 5.00 | 0.948 | < 4.52
JM1 (B-cell lymphoma, suspension) | 0.708 | 6.58 | 0.79 | 5.12 | 0.749 | 6.14 | 0.563 | 5.54 | 0.613 | 6.21 | 0.915 | < 7.00 | 0.962 | < 5.00 | 0.982 | < 4.52
L-363 (myeloma, suspension) | 0.15 | 8.11 | 0.885 | 4.78 | 0.784 | 6.03 | 0.868 | 4.64 | 0.845 | 5.53 | 0.772 | 7.47 | 0.93 | < 5.00 | 0.983 | < 4.52
GOTO (neuroblastoma, adherent) | 0.632 | 6.74 | 0.58 | 5.67 | 0.959 | < 5.59 | 0.921 | < 4.49 | 0.626 | 6.12 | 0.931 | < 7.00 | 0.941 | < 5.00 | 0.977 | < 4.52
JiyoyeP-2003 (Burkitt lymphoma, suspension) | 0.571 | 6.94 | 0.857 | 4.88 | 0.768 | 6.07 | 0.722 | 5.11 | 0.753 | 5.82 | 0.516 | 8.16 | 0.93 | < 5.00 | 0.97 | < 4.52
NU-DUL-1 (B-cell lymphoma, suspension) | 0.505 | 7.11 | 0.783 | 5.17 | 0.805 | 6.00 | 0.713 | 5.16 | 0.503 | 6.49 | 0.784 | 7.47 | 0.857 | 5.24 | 0.984 | < 4.52
SUP-T1 (T-cell lymphoblastic leukaemia, suspension) | 0.988 | < 5.92 | 0.924 | < 4.70 | 0.985 | < 5.59 | 0.903 | < 4.49 | 0.706 | 5.94 | 0.989 | < 7.00 | 0.985 | < 5.00 | 0.981 | < 4.52
LU-139 (small cell lung carcinoma, suspension) | 0.595 | 6.83 | 0.879 | < 4.70 | 0.907 | < 5.59 | 0.848 | < 4.49 | 0.785 | 5.54 | 0.795 | 7.21 | 0.87 | < 5.00 | 0.955 | < 4.52
